Assay results: patent US20070248536A1 (SCIL PROTEINS, published 2007)

Target: T1, human wildtype ubiquitin (human, UniProt P0CG48 partial chain)
T1 construct: Scaffold control; also called Ubiquitin wildtype
Assay: concentration-dependent ELISA, detection with anti-ubiquitin antiserum

B1: human NGF (ligand)
chain: not shown
notes: also called a growth factor from the family of cysteine knot proteins
binding result: no binding
